Data: PubChem BioAssay (NCATS)
Where “and” joins values, the source holds several entries; their conditions need not be identical. Equal values may be shown once. Some of the results follow. Shown are side measurements of this screen, not its main read-out; they come without a call. Compounds called inactive in the main read-out are mostly missing here. The note in brackets gives the kind of curve behind each potency; many fits are weak.

Assay: qHTS Assay for Lipid Storage Modulators (AID 1519)
Details: Drosophila S3 cells, BODIPY lipid droplet/cell ratio, laser cytometry, cells loaded with oleic acid
Method in brief: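 Cells seeded at 5,000 per well were treated with compounds over a concentration series and loaded with oleic acid (400 uM, as added). Lipid droplet fluorescence (488 nm excitation, 500-530 nm channel) was read by laser-scanning cytometry and normalized to 20 uM Triacsin C.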

[1] = measured here: cell count channel max response
[2] = measured here: cell number channel AC50
[3] = measured here: lipid (BODIPY) channel AC50
[4] = measured here: lipid channel max response
Tags tell the direction and shape of the fitted curve.

| SMILES | max response [1] | AC50 [2] | AC50 [3] | max response [4] |
| --- | --- | --- | --- | --- |
| CC1(C)CC[C@]2(C(=O)O)CC[C@]3(C)C(=CCC4[C@@]5(C)CC[C@H](O)C(C)(C)C5[C@H](O)C[C@]43C)C2C1 (some centres undefined) | 63.1% | 7.94 µM [rising, full curve] | 7.08 µM [rising, full curve] | 79.5% |
| CCN(Cc1ccncc1)C(=O)C(CO)c1ccccc1 (centres undefined) | 28.7% and 49.5% | 4.47 µM [falling, partial curve] | 39.8 µM [rising, single point] and 4.47 µM [falling, partial curve] | 45.4% and 49.1% |
| N#Cc1cccc(NC(=O)N2CC[C@@]3(CCCN(C(=O)c4csnn4)C3)C2)c1 | 27.1% | 0.398 µM [rising, partial curve, poor fit] | 1 µM [rising, partial curve, poor fit] | 34% |
| N#Cc1cccc(-c2nc3cnc(N4CCOCC4)nc3n(Cc3ccc(F)cc3)c2=O)c1 | 23.7% | 0.562 µM [rising, full curve, poor fit] | 0.562 µM [rising, full curve, poor fit] | 25.3% |
| Cc1onc(-c2c(Cl)cccc2Cl)c1C(=O)NC1C(=O)N2C1SC(C)(C)C2C(=O)O (centres undefined) | 46.8% | 20 µM [rising, partial curve] | 35.5 µM [rising, single point] | 83.6% |
| COc1ccc(CNc2cc(-c3ccccc3OC)ncn2)c(OC)c1 | 33.3% | 2.24 µM [rising, full curve, poor fit] | 2.51 µM [rising, full curve] | 43.6% |
